Results as given in PubChem BioAssay AID624296 (National Center for Advancing Translational Sciences (NCATS), 2012).
Values joined by “and” are separate entries in the source; they are usually repeats but may differ in a detail not shown here. Equal values may be shown once. The campaign covered roughly 350,000 compounds. About 9,900 (2.8%) were called active. The shares of active, inactive and inconclusive entries below differ from those in the screen. Calls follow the shape of the dose curve; as a rule, active = well fitted activation curve with a large enough effect; inconclusive = small, poorly fitted or top-dose-only effect; inactive = no such curve, though single readings can be large or run the other way. A potency beside an inconclusive call is a rough fit, not a confirmed value.
Potency is read from the fitted curve at half-maximal effect; tags tell the direction and shape of the fitted curve.

Assay: A quantitative high throughput screen for small molecules that induce DNA re-replication in MCF 10a normal breast cells. Also: nearly all actives have a fitted effect of over 50% in size.
Details: MCF 10A DNA re-replication, Hoechst nuclear intensity, 48 h; series mostly up to 46.1 µM
For COc1ccc(N=Cc2c(O)n(-c3ccc(C)cc3)c(=O)[nH]c2=O)cc1, the Potency was inconclusive: 20.6 µM [activator, single point].
In the case of Clc1ccccc1NC1=NCCCS1, the Potency is reported as inconclusive: 29.1 µM [activator, single point].
In the case of Oc1ccc2c3c1OC1c4oc5ccccc5c4C[C@@]4(O)[C@@H](C2)N(CC2CC2)CC[C@]314 (some centres not stated), the Potency is reported as “inactive”.
With O=S(=O)(c1ccc(F)c(F)c1F)N1CCN(c2ncnc3sccc23)CC1 the Potency was inconclusive: 20.6 µM [activator, single point].
In the case of ClCCN(CCCl)c1ccc(C=NNc2ncccn2)cc1, the Potency is reported as inconclusive: 23.1 µM [activator, single point].
In the case of O=C(c1ccc(Cl)cc1)C1CCCN(Cc2ccc3c(c2)OCCO3)C1 (configuration not stated), the Potency is reported as inconclusive: 29.1 µM [activator, single point].
With CCC(=O)c1ccc(OCC(=O)N2CCN(CC(=O)Nc3ccccc3C(F)(F)F)CC2)cc1 the Potency was “inactive”.
With Cn1ncnc2c(=O)n(C)c(=O)nc1-2 the Potency was active: 18.4 µM.
In the case of COc1ccc(CC(=O)N(CCN(C)C)CC2CCCN(Cc3ccccc3F)C2)cc1 (configuration not stated), the Potency is reported as inconclusive: 11.6 µM [activator, partial curve].
In the case of CCOC(=O)[C@]12Cc3c(cc(OC)c(OC)c3OC)[C@H]1N(Cc1ccccc1)C(=O)c1ccccc12, the Potency is reported as inconclusive: 29.1 µM [activator, single point].
In the case of CC1(C)OC(c2ccccc2)=C/C(=C/C=C2C(=O)NC(=S)NC2=O)O1, the Potency is reported as inconclusive: 16.4 µM [activator, single point].
With CC1CCN(c2nc(-c3ccc(F)cc3)cc(C(F)(F)F)n2)CC1 the Potency was inconclusive: 18.4 µM [activator, single point].
With C[C@]12CCC3C(CC[C@H]4C[C@@H](O)CC[C@]34C)C1CC[C@@H]2N (some centres not stated) the Potency was inconclusive: 23.1 µM [activator, single point].
For O=c1oc2ccccc2n1CSC1=NCCS1, the Potency was inconclusive: 16.4 µM [activator, single point].
In the case of COc1ccc(OCC#CCN2CCC(C)CC2)cc1, the Potency is reported as inconclusive: 29.1 µM [activator, single point].
In the case of C[C@H]1CCC[C@H](O)CCCCCc2cc(O)cc(O)c2C(=O)O1, the Potency is reported as inconclusive: 9.2 µM [activator, single point].
In the case of O=C1NC(=O)N(CCc2ccc(F)cc2)C(=O)/C1=C/c1ccco1, the Potency is reported as inconclusive: 20.6 µM [activator, single point].
For FC(F)(F)c1cccc(C2NCc3ccccc3-n3cccc32)c1 (configuration not stated), the Potency was inconclusive: 32.6 µM [activator, partial curve, poor fit].
In the case of Cc1cc(C(=O)OCC(=O)Nc2cccc(F)c2)c(C)n1C1CC1, the Potency is reported as “inactive”.
With CCOC(=O)[C@]12Cc3cc(OC)ccc3[C@H]1N(Cc1ccccc1)C(=O)c1cc(F)c(F)cc12 the Potency was inconclusive: 2.91 µM [activator, partial curve, poor fit].
With CCOC(=O)/C=C(C)/C=C/CC(C)CCCC(C)C (configuration not stated) the Potency was “inactive”.
In the case of CCOc1ccc(C2SCC(=O)Nc3c2c(=O)[nH]n3C2CCCCCC2)cc1 (configuration not stated), the Potency is reported as inconclusive: 18.4 µM [activator, single point].
In the case of O=c1[nH]c(=S)n(C2CC2)c(O)c1C=NCc1cccnc1, the Potency is reported as “inactive”.
In the case of CC(C)(C)N1C(=O)NC(=O)/C(=C\c2ccc3c(c2)CCN3CCCCl)C1=O, the Potency is reported as “inactive”.
With Cc1ccc(OCCOc2cccc(C=C3C(=O)NC(=O)NC3=O)c2)c(C)c1 the Potency was “inactive”.
For CC(C)[C@H](N)C(=O)OCCOCn1cnc2c(=O)[nH]c(N)nc21, the Potency was inconclusive: 0.116 µM [activator, full curve, poor fit].
In the case of NC1=C(Br)C(=O)c2ccccc2C1=O, the Potency is reported as inconclusive: 29.1 µM [activator, single point].
For COc1ccccc1-n1c(-c2ccccc2F)nc2ccccc2c1=O, the Potency was “inactive”.
For COc1ccc(-n2c(O)c(/C=C3\C=Nc4ccc(Br)cc43)c(=O)[nH]c2=O)c(OC)c1, the Potency was inconclusive: 18.4 µM [activator, single point].
With CC(N)C(=O)NC1C2C(=C(O)CC(O)C2O)C(=O)OC1(C)C(Cl)Cl (configuration not stated) the Potency was inconclusive: 0.411 µM [activator, full curve, poor fit].
For Cn1c(=O)oc2cc(S(=O)(=O)N3CCCC(C(=O)Nc4ccccn4)C3)ccc21 (configuration not stated), the Potency was inconclusive: 2.59 µM [activator, partial curve, poor fit].
For O[C@@H]1CCCC[C@H]1N1CCC(c2ccccc2)CC1, the Potency was inconclusive: 0.0041 µM [activator, full curve, poor fit].
With CC(C)N1C(=O)/C(=C/C=C/c2ccco2)C(=O)N(Cc2ccco2)C1=O the Potency was active: 9.2 µM.
For CN1CCc2nc(SCC(=O)OC(C)(C)C)c(C#N)cc2C1, the Potency was inconclusive: 31.6 µM [activator, single point].
In the case of CC(C)c1ccc(-n2c(O)c(/C=N/NC(=O)c3ccccc3O)c(=O)[nH]c2=S)cc1, the Potency is reported as inconclusive: 32.6 µM [activator, single point].
For CC(=O)Nc1ccc(OC(=O)c2ccccc2N)cc1, the Potency was inconclusive: 0.0366 µM [activator, full curve, poor fit].
For CC(C)NS(=O)(=O)c1ccc2c(c1)oc(=O)n2C, the Potency was inconclusive: 0.0041 µM [activator, full curve, poor fit].
For CC1CC(C)CC(C)C(O)C(C#N)=CC=CCC(C2CCCC2C(=O)O)OC(=O)CC(O)C(C)C1 (configuration not stated), the Potency was active: 0.13 µM.
For Oc1cc(Cl)c(Cl)c(Cl)c1, the Potency was inconclusive: 18.4 µM [activator, partial curve, poor fit].
For O=P(Oc1ccccc1)(Oc1ccccc1)C(Nc1ccccc1)c1ccccc1 (configuration not stated), the Potency was inconclusive: 20.6 µM [activator, single point].
With O=c1c2ccccc2nc(CNCc2ccco2)n1-c1ccc(F)cc1 the Potency was “inactive”.
In the case of Cn1cc([N+](=O)[O-])c(C(=O)Nc2ccc3c(C(F)(F)F)cc(=O)oc3c2)n1, the Potency is reported as inconclusive: 16.4 µM [activator, partial curve, poor fit].
For CCOC(=O)c1c(-c2ccccc2)oc2ccc(OC(=O)N(C)C)cc12, the Potency was inconclusive: 20.6 µM [activator, single point].
For COc1ccccc1N1CCN(CCc2c[nH]c3cc4c(cc23)OCO4)CC1, the Potency was “inactive”.
For CN1Cc2cnnn2-c2ccccc2C1C#N (configuration not stated), the Potency was inconclusive: 0.461 µM [activator, full curve, poor fit].
In the case of Cc1ccccc1N1C(=O)NC(=O)/C(=C\c2ccc3c(c2)CCCN3Cc2ccccc2)C1=O, the Potency is reported as inconclusive: 18.4 µM [activator, single point].
With C[C@]12CC[C@H](O)C[C@H]1CCC1C2CC[C@]2(C)[C@@H](c3ccc(=O)oc3)C[C@H]3O[C@]132 (some centres not stated) the Potency was active: 13.3 µM.
For COc1ccc(C2SCC(=O)Nc3c2c(C)nn3-c2ccccc2)cc1 (configuration not stated), the Potency was “inactive”.
In the case of COc1cc(/C=C2\C(=O)NC(=O)N(c3ccccc3)C2=O)cc(OC)c1O, the Potency is reported as inconclusive: 0.146 µM [activator, full curve, poor fit].
In the case of Oc1cc(Cl)ccc1Oc1ccc(Cl)cc1Cl, the Potency is reported as inconclusive: 33.5 µM [activator, single point] and inconclusive: 10.3 nM [activator, full curve, poor fit].
With Cc1cccc(NC(=O)N2C[C@H]3C[C@@H](C2)c2cccc(=O)n2C3)c1 the Potency was “inactive”.
For COc1ccc2cc(C(=O)C3CCCN(C4CCOCC4)C3)ccc2c1 (configuration not stated), the Potency was inconclusive: 14.6 µM [activator, partial curve, poor fit].
With O=c1c2ccccc2nc(-c2ccco2)n1-c1ccc(Br)cc1 the Potency was inconclusive: 23.1 µM [activator, partial curve, poor fit].
For COC(=O)C1=C(c2ccc(F)cc2OCc2ccccc2)C[C@@H]2CC[C@H]1N2C(=O)NC1Cc2ccccc2C1, the Potency was inconclusive: 29.1 µM [activator, single point].
With N#CC1=C(N)Oc2c(c(=O)sc3ccccc23)C1c1cccnc1 (configuration not stated) the Potency was active: 8.2 µM.
In the case of Cc1ccc(-c2cc(-c3ccc(C)cc3)[n+](-c3ccccc3)c(-c3ccc(C)cc3)c2)cc1, the Potency is reported as inconclusive: 8.2 µM [activator, partial curve].
For CN(C)/C=c1\sc2c(C#N)cc(C(=O)c3ccc(Br)cc3)n2c1=O, the Potency was inconclusive: 29.1 µM [activator, partial curve, poor fit].
In the case of N[C@@H](Cc1cc(Br)c(O)c(Br)c1)C(=O)O, the Potency is reported as active: 18.4 µM.
In the case of Cc1cc(O)c2c3c(c(=O)oc2c1)CCC(C)C3 (configuration not stated), the Potency is reported as inconclusive: 20.6 µM [activator, single point].
For COc1ccc(C(=O)OC2C[C@H]3CC[C@H](C2)N3C)cc1OC (some centres not stated), the Potency was inconclusive: 25.9 µM [activator, single point].
With CSc1ccccc1C(=O)C1CCCN(Cc2cccc(C)n2)C1 (configuration not stated) the Potency was “inactive”.
In the case of CC12CCC3C(CCC4CC(=O)C(C(O)C(F)(F)F)CC43C)C1CCC2O (configuration not stated), the Potency is reported as inconclusive: 29.1 µM [activator, single point].
In the case of Cc1cccc([C@H](C)c2cnc[nH]2)c1C, the Potency is reported as “inactive”.
With CCCCn1c(O)c(C(C)=NCc2ccc3c(c2)OCO3)c(=O)[nH]c1=O the Potency was “inactive”.
In the case of Cc1cccc(N2C(=O)NC(=O)C3(Cc4cc(C)ccc4N(C)C3)C2=O)c1 (configuration not stated), the Potency is reported as inconclusive: 23.1 µM [activator, single point].
With CCCCOP(=O)(c1ccc(N(C)C)cc1)C(Nc1ccccc1)c1ccccc1 (configuration not stated) the Potency was active: 20.6 µM.
In the case of COc1ccccc1CNCCc1ccc(F)cc1, the Potency is reported as inconclusive: 5.8 µM [activator, single point].
